According to the supplement of paper PMC3334620:
In all, about 33,000 sequences were measured (“E-score (-0.5 to 0.5)”: median about -0.054, highest 2% from about 0.35 on). The list shows a part of the results.

Target: T1, Stb5 (UniProt P38699)
T1 sequence: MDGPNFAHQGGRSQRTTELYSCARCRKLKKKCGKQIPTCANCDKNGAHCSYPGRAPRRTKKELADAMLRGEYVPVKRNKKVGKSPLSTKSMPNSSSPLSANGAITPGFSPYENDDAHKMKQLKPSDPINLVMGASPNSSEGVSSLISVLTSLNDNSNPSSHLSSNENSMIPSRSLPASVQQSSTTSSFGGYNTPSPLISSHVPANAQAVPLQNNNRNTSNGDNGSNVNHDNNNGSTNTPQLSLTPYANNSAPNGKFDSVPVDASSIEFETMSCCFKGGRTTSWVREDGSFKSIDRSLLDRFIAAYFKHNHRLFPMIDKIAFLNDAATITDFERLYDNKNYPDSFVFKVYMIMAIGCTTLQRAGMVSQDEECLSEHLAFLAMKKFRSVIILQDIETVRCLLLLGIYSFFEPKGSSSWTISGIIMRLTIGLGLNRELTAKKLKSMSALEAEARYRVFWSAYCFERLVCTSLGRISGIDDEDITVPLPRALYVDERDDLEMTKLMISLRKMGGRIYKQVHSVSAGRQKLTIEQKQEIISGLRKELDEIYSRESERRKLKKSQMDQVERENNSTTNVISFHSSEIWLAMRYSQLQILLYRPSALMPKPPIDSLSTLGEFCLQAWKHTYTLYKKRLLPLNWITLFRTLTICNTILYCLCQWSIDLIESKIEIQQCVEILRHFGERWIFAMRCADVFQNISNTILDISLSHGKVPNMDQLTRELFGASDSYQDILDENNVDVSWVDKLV
Assay: PBM E-score (8-mer binding enrichment) (E-score (-0.5 to 0.5)); higher = stronger / more preferred TF binding; most listed sequences are background and not binding sites
Conditions: protein concentration: 200 nM; construct: GST-full length
Method: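 Universal 'all 10-mer' protein binding microarrays (Agilent AMADID 015681) probed with GST-tagged S. cerevisiae TFs (full-length or DBD) made by in vitro transcription/translation (PURExpress), about 100-200 nM. Bound TF was detected with fluorescent anti-GST. Each ungapped 8-mer (which stands for itself and its reverse complement) is scored by the PBM enrichment score (E-score), a modified Wilcoxon-Mann-Whitney statistic from -0.5 to +0.5, computed with the Universal PBM Analysis Suite. Scale: above 0.35 generally sequence-specific binding.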

Sequence | PBM E-score
CCTGCAGG | -0.179
CAAGATTG | -0.102
CACCCCTC | 0.0947
AGAAGAGG | -0.206
ATAACTAC | 0.171
GCCACCGC | 0.335
ATCGGTTA | 0.178
GAAGAAAA | -0.0671
CTTTATTC | -0.191
CCCTGGCC | -0.283
AAAGACCG | 0.448
CCGACCTA | 0.307
GAAACTGA | -0.0744
ATCGAGAT | -0.214
GCACTCCC | -0.11
CGTCGCTA | 0.00429
TCGGTCAA | 0.106
CGCCTTGA | 0.0397
CTCCCCGA | 0.225
AAACTTCA | -0.199
GATTAAGC | 0.186
ACATAAGT | -0.0446
CAAATCTG | -0.211
AATTTAGC | -0.036
AAAGTTCT | 0.0158

Sequence | PBM E-score
ACGGCGAT | 0.362
CACTACAA | 0.0255
ACGCGACG | 0.00542
AGAGTGTG | -0.243
ACAGTTAG | -0.198
GACTCGTA | -0.101
ACACATAG | -0.179
CACTATGG | -0.18
CAATCCAG | -0.0614
CTTTACGC | -0.0461
AGCGTCAT | -0.0726
CAAAGCGG | 0.288
CCGTTCCA | 0.245
TCTGACAA | -0.0692
CGCAACTA | 0.108
AGCTATTA | -0.041
GAAGGCGC | 0.0676
ATAATTCA | -0.151
GAGCCTAA | -0.251
CGTTAACG | 0.201
TGCCGTAA | 0.139
CAAGAACC | 0.0235
ACGTGTAA | -0.0694
AAGCGCAG | -0.00786
ATCCTCCC | -0.0326

Sequence | PBM E-score
CATTACCA | -0.0259
AGGCGGGG | 0.38
CAAGGACC | 0.174
CCTTACTA | -0.0929
ACACTGTA | -0.211
TCCCAGAA | -0.15
TCTCTCCA | -0.0209
ATTATTTA | 0.144
ATATTCGA | -0.0397
AGCGTACC | -0.00734
CCCGAATC | 0.126
TCGCCTCA | -0.162
GTATGCGA | -0.0163
CTCCGTTA | 0.299
AATCAATC | -0.0462
GATGTTAA | 0.139
ACAGATAA | -0.0763
ACGTCAAG | -0.153
AAGGCACA | -0.268
GGTCATAA | 0.293
GTGCTCAA | 0.0666
AGTGCCCC | -0.129
CATCGAGG | -0.214
CCTCCCCC | -0.245
TAGGGTAA | 0.0894

Sequence | PBM E-score
ATCATGAT | -0.199
CGCCATTC | 0.108
ACGTGAAA | -0.157
ACCCACTA | 0.0277
GGCGCGAC | 0.152
AGAAAGTA | -0.0728
CCGTGCAC | 0.227
AAATGCCA | 0.107
AAAAGCCA | -0.0171
CCCGTGAG | 0.127
CCCGCAGG | 0.262
TAGTACAA | -0.134
AAGAACGA | -0.042
CTGATCAC | -0.0828
CACTTCTA | -0.0293
TCGGTACA | 0.199
CGCACTTA | 0.368
ACGTCAGG | -0.00722
CATCGGGG | 0.313
AAAGGCTG | -0.205
AGGTCCTA | 0.0577
GCTTGGTA | -0.019
CATGGTAC | -0.0239
GGATGGGA | -0.239
ACGTGAAC | -0.124

Sequence | PBM E-score
ATTGTGGA | -0.277
CGTGGAAC | 0.0496
CCATTCAG | -0.113
CAGATGCC | -0.0851
GACGGGGA | 0.317
CGCGGGCC | 0.256
ATGTAGTC | -0.148
CACTACAG | -0.115
CGGAGTAC | 0.115
GGTAACCA | -0.212
GCTTTGAA | -0.11
TGATCCCA | -0.099
ATTTCTGG | -0.257
ATCTCGAA | -0.21
GGAGGATA | -0.117
CTGTGAGC | -0.0891
TACACGTA | -0.0952
CGTCATCA | -0.0955
CCCTACAC | -0.0507
AATGAGGT | -0.275
CAACGCAC | 0.00162
ATAATAGC | 0.178
CTAGTCTC | -0.14
GCTCCAAA | -0.0354
ATCCTATG | -0.044

Sequence | PBM E-score
AACGAGCA | -0.314
ATCTCCGG | 0.423
ATTAATAA | 0.162
TGAGGGAA | -0.23
ATTTAAGG | -0.0858
AATCATGG | -0.165
AATAGTCA | -0.122
AGCAGGCC | -0.202
CTACGCTA | 0.143
AACGTCTC | -0.36
AAAACAGC | 0.109
ATATCCGA | 0.37
AGTATCCG | 0.0952
ACGGAGTC | 0.325
CCCCGGTA | 0.298
CACCCCCC | -0.14
TGTCGCAA | -0.121
AACCCTAG | -0.232
CACGGACC | 0.241
GTCCGATA | 0.31
CCGTAGTC | 0.0801
GAGGACGC | 0.00133
GAATGAGC | -0.204
GAGCTGGC | -0.244
ATTGTGGC | -0.0738

Sequence | PBM E-score
AAACCTCA | -0.103
AAACGACC | -0.124
ACACAGGA | -0.244
GCATGAGC | -0.0601
CGTCCAGC | -0.00696
ACCTATCC | 0.00358
CATGACTA | -0.186
AATTAATG | 0.132
CCTGTTCA | -0.2
AAATTTTC | -0.0669
ACTTGTGG | -0.238
CACTTAGC | -0.0712
CAAGGAGC | -0.0624
CCCACAAG | 0.00897
AAGGATCG | 0.0334
CTGCTACA | 0.0655
CGCGGAGA | 0.287
ATTCCTGA | -0.186
AAATGACA | -0.207
TCGACTAA | -0.173
CCGTGTCA | 0.253
AGGTACTA | 0.16
